Test results published in patent US20180355046A1 (Boehringer Ingelheim, published 2018).
Residue numbers refer to the chain shown, from its start.

B1: 277-gr (IgG1) (antibody)
heavy: QVQLVQSGAEVKKPGASVKVSCKASGYTFTGYWMHWVRQAPGQGLEWMGYINPSTDYTEYNQKFKDRVTMTRDTSTSTVYMELSSLRSEDTAVYYCARSRTGNYWGQGTLVTVSSASTKGPSVFPLAPSSKSTSGGTAALGCLVKDYFPEPVTVSWNSGALTSGVHTFPAVLQSSGLYSLSSVVTVPSSSLGTQTYICNVNHKPSNTKVDKRV[human IgG1 Fc not printed]
light: DIVMTQSPDSLAVSLGERATINCKSSQSLLYSSNQKNYLAWYQQKPGQPPKLLIYWASTRESGVPDRFSGSGSGTDFTLTISSLQAEDVAVYYCQQYYSYPYTFGQGTKLEIKRTVAAPSVFIFPPSDEQLKSGTASVVCLLNNFYPREAKVQWKVDNALQSGNSQESVTEQDSKDSTYSLSSTLTLSKADYEKHKVYACEVTHQGLSSPVTKSFNRGEC
B2: 277-gr (IgG1-KO) (antibody)
heavy: QVQLVQSGAEVKKPGASVKVSCKASGYTFTGYWMHWVRQAPGQGLEWMGYINPSTDYTEYNQKFKDRVTMTRDTSTSTVYMELSSLRSEDTAVYYCARSRTGNYWGQGTLVTVSSASTKGPSVFPLAPSSKSTSGGTAALGCLVKDYFPEPVTVSWNSGALTSGVHTFPAVLQSSGLYSLSSVVTVPSSSLGTQTYICNVNHKPSNTKVDKRV[human IgG1 Fc with changes not printed]
light: B1 light
B3: 277-64 (IgG1) (antibody)
heavy: B1 heavy with M48I, L110T
light: B1 light with N22S
B4: 277-64 (IgG1-KO) (antibody)
heavy: QVQLVQSGAEVKKPGASVKVSCKASGYTFTGYWMHWVRQAPGQGLEWIGYINPSTDYTEYNQKFKDRVTMTRDTSTSTVYMELSSLRSEDTAVYYCARSRTGNYWGQGTTVTVSSASTKGPSVFPLAPSSKSTSGGTAALGCLVKDYFPEPVTVSWNSGALTSGVHTFPAVLQSSGLYSLSSVVTVPSSSLGTQTYICNVNHKPSNTKVDKRV[human IgG1 Fc with changes not printed]
light: B1 light with N22S

molecular target: human TrkB receptor on cells (human, UniProt Q16620 32-822); assay: cell-based or functional assay
Sequence of UniProt Q16620 (Q16620 32-822): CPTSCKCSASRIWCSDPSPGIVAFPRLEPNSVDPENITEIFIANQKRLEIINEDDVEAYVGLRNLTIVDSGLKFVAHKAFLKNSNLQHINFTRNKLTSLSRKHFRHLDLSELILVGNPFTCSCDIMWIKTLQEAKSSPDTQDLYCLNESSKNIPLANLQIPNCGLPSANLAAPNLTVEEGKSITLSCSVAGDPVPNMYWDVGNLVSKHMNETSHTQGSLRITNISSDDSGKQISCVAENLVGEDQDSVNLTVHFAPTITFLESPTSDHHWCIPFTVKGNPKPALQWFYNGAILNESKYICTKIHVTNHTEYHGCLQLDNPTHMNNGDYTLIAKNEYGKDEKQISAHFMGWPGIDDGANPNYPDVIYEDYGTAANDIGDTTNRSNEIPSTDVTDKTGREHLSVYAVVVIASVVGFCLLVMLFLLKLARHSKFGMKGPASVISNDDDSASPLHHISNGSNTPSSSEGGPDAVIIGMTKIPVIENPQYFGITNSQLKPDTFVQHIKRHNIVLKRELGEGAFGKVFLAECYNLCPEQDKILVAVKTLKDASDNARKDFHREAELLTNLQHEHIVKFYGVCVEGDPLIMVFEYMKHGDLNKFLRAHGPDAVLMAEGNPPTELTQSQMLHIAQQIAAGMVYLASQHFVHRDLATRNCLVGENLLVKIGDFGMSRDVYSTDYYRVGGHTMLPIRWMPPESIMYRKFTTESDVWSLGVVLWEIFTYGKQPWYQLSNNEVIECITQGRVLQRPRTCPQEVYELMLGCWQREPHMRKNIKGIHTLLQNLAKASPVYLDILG

Binder | AKT 1/2/3-P (T308), differentiated SH-SY5Y cells, EC50 [nM] | TrkB-P (TrkB phosphorylation, AlphaLISA, differentiated SH-SY5Y cells), EC50 [nM]
B1 | 0.023 | 0.039
B2 | 0.039 | 0.046
B3 | 0.025 | 0.053
B4 | 0.022 | 0.044
